# Results from patent US20200002421A1, “ANTI-B7-H3 ANTIBODIES AND ANTIBODY DRUG CONJUGATES” (AbbVie Inc., priority 2016, published 2020).
# Changes are numbered by the printed parent chain.
# B1: huAb3v2.5-CZ (conjugate)
# heavy: EVQLVQSGAEVKKPGSSVKVSCKASGYTFSSYWMHWVRQAPGQGLEWIGLIHPESGSTNYNEMFKNRATLTVDRSTSTAYMELSSLRSEDTAVYYCAGGGRLYFDYWGQGTTVTVSSASTKGPSVFPLAPSSKSTSGGTAALGCLVKDYFPEPVTVSWNSGALTSGVHTFPAVLQSSGLYSLSSVVTVPSSSLGTQTYICNVNHKPSNTKVDKKV[letters of human IgG1 Fc with changes omitted]
# light: DIVMTQSPLSLPVTPGEPASISCRSSQSLVHSNRDTYLRWYLQKPGQSPQLLIYKVSNRFSGVPDRFSGSGSGTDFTLKISRVEAEDVGVYYCSQSTHVPYTFGGGTKVEIKRTVAAPSVFIFPPSDEQLKSGTASVVCLLNNFYPREAKVQWKVDNALQSGNSQESVTEQDSKDSTYSLSSTLTLSKADYEKHKVYACEVTHQGLSSPVTKSFNRGEC
# B2: huAb3v2.6-CZ (conjugate)
# heavy: EVQLVQSGAEVKKPGSSVKVSCKASGYTFSSYWMHWVRQAPGQGLEWIGLIHPESGSTNYNEMFKNRATLTVDRSTSTAYMELSSLRSEDTAVYYCAGGGRLYFDYWGQGTTVTVSSASTKGPSVFPLAPSSKSTSGGTAALGCLVKDYFPEPVTVSWNSGALTSGVHTFPAVLQSSGLYSLSSVVTVPSSSLGTQTYICNVNHKPSNTKVDKKV[letters of human IgG1 Fc with changes omitted]
# light: B1 light with R34Q
# B3: huAb3v2.5-AAA (conjugate)
# heavy: EVQLVQSGAEVKKPGSSVKVSCKASGYTFSSYWMHWVRQAPGQGLEWIGLIHPESGSTNYNEMFKNRATLTVDRSTSTAYMELSSLRSEDTAVYYCAGGGRLYFDYWGQGTTVTVSSASTKGPSVFPLAPSSKSTSGGTAALGCLVKDYFPEPVTVSWNSGALTSGVHTFPAVLQSSGLYSLSSVVTVPSSSLGTQTYICNVNHKPSNTKVDKKV[letters of human IgG1 Fc with changes omitted]
# light: B1 light
# B4: huAb13v1-AAA (conjugate)
# heavy: EVQLQESGPGLVKPSETLSLTCAVTGYSITSGYSWHWIRQFPGNGLEWMGYIHSSGSTNYNPSLKSRISISRDTSKNQFFLKLSSVTAADTAVYYCAGYDDYFEYWGQGTTVTVSSASTKGPSVFPLAPSSKSTSGGTAALGCLVKDYFPEPVTVSWNSGALTSGVHTFPAVLQSSGLYSLSSVVTVPSSSLGTQTYICNVNHKPSNTKVDKKV[letters of human IgG1 Fc with changes omitted]
# light: DIQMTQSPSSLSASVGDRVTITCKASQNVGFNVAWYQQKPGKSPKALIYSASYRYSGVPSRFSGSGSGTDFTLTISSLQPEDFAEYFCQQYNWYPFTFGQGTKLEIKRTVAAPSVFIFPPSDEQLKSGTASVVCLLNNFYPREAKVQWKVDNALQSGNSQESVTEQDSKDSTYSLSSTLTLSKADYEKHKVYACEVTHQGLSSPVTKSFNRGEC
# B5: huAb3v2.5-TX (conjugate)
# heavy: EVQLVQSGAEVKKPGSSVKVSCKASGYTFSSYWMHWVRQAPGQGLEWIGLIHPESGSTNYNEMFKNRATLTVDRSTSTAYMELSSLRSEDTAVYYCAGGGRLYFDYWGQGTTVTVSSASTKGPSVFPLAPSSKSTSGGTAALGCLVKDYFPEPVTVSWNSGALTSGVHTFPAVLQSSGLYSLSSVVTVPSSSLGTQTYICNVNHKPSNTKVDKKV[letters of human IgG1 Fc with changes omitted]
# light: B1 light
# B6: huAb3v2.6-TX (conjugate)
# heavy: EVQLVQSGAEVKKPGSSVKVSCKASGYTFSSYWMHWVRQAPGQGLEWIGLIHPESGSTNYNEMFKNRATLTVDRSTSTAYMELSSLRSEDTAVYYCAGGGRLYFDYWGQGTTVTVSSASTKGPSVFPLAPSSKSTSGGTAALGCLVKDYFPEPVTVSWNSGALTSGVHTFPAVLQSSGLYSLSSVVTVPSSSLGTQTYICNVNHKPSNTKVDKKV[letters of human IgG1 Fc with changes omitted]
# light: B1 light with R34Q
# B7: huAb13v1-CZ (conjugate)
# heavy: EVQLQESGPGLVKPSETLSLTCAVTGYSITSGYSWHWIRQFPGNGLEWMGYIHSSGSTNYNPSLKSRISISRDTSKNQFFLKLSSVTAADTAVYYCAGYDDYFEYWGQGTTVTVSSASTKGPSVFPLAPSSKSTSGGTAALGCLVKDYFPEPVTVSWNSGALTSGVHTFPAVLQSSGLYSLSSVVTVPSSSLGTQTYICNVNHKPSNTKVDKKV[letters of human IgG1 Fc with changes omitted]
# light: B4 light
# B8: huAb3v2.5-YY (conjugate)
# heavy: EVQLVQSGAEVKKPGSSVKVSCKASGYTFSSYWMHWVRQAPGQGLEWIGLIHPESGSTNYNEMFKNRATLTVDRSTSTAYMELSSLRSEDTAVYYCAGGGRLYFDYWGQGTTVTVSSASTKGPSVFPLAPSSKSTSGGTAALGCLVKDYFPEPVTVSWNSGALTSGVHTFPAVLQSSGLYSLSSVVTVPSSSLGTQTYICNVNHKPSNTKVDKKV[letters of human IgG1 Fc with changes omitted]
# light: B1 light
# B9: huAb3v2.5-ZT (conjugate)
# heavy: EVQLVQSGAEVKKPGSSVKVSCKASGYTFSSYWMHWVRQAPGQGLEWIGLIHPESGSTNYNEMFKNRATLTVDRSTSTAYMELSSLRSEDTAVYYCAGGGRLYFDYWGQGTTVTVSSASTKGPSVFPLAPSSKSTSGGTAALGCLVKDYFPEPVTVSWNSGALTSGVHTFPAVLQSSGLYSLSSVVTVPSSSLGTQTYICNVNHKPSNTKVDKKV[letters of human IgG1 Fc with changes omitted]
# light: B1 light
# B10: huAb3v2.6-AAD (conjugate)
# heavy: EVQLVQSGAEVKKPGSSVKVSCKASGYTFSSYWMHWVRQAPGQGLEWIGLIHPESGSTNYNEMFKNRATLTVDRSTSTAYMELSSLRSEDTAVYYCAGGGRLYFDYWGQGTTVTVSSASTKGPSVFPLAPSSKSTSGGTAALGCLVKDYFPEPVTVSWNSGALTSGVHTFPAVLQSSGLYSLSSVVTVPSSSLGTQTYICNVNHKPSNTKVDKKV[letters of human IgG1 Fc with changes omitted]
# light: B1 light with R34Q
# modifications: non-natural residues
# B11: huAb3v2.5-AAD (conjugate)
# heavy: EVQLVQSGAEVKKPGSSVKVSCKASGYTFSSYWMHWVRQAPGQGLEWIGLIHPESGSTNYNEMFKNRATLTVDRSTSTAYMELSSLRSEDTAVYYCAGGGRLYFDYWGQGTTVTVSSASTKGPSVFPLAPSSKSTSGGTAALGCLVKDYFPEPVTVSWNSGALTSGVHTFPAVLQSSGLYSLSSVVTVPSSSLGTQTYICNVNHKPSNTKVDKKV[letters of human IgG1 Fc with changes omitted]
# light: B1 light
# modifications: non-natural residues
# B12: huAb3v2.6-YY (conjugate)
# heavy: EVQLVQSGAEVKKPGSSVKVSCKASGYTFSSYWMHWVRQAPGQGLEWIGLIHPESGSTNYNEMFKNRATLTVDRSTSTAYMELSSLRSEDTAVYYCAGGGRLYFDYWGQGTTVTVSSASTKGPSVFPLAPSSKSTSGGTAALGCLVKDYFPEPVTVSWNSGALTSGVHTFPAVLQSSGLYSLSSVVTVPSSSLGTQTYICNVNHKPSNTKVDKKV[letters of human IgG1 Fc with changes omitted]
# light: B1 light with R34Q
# B13: huAb3v2.6-TV (conjugate)
# heavy: EVQLVQSGAEVKKPGSSVKVSCKASGYTFSSYWMHWVRQAPGQGLEWIGLIHPESGSTNYNEMFKNRATLTVDRSTSTAYMELSSLRSEDTAVYYCAGGGRLYFDYWGQGTTVTVSSASTKGPSVFPLAPSSKSTSGGTAALGCLVKDYFPEPVTVSWNSGALTSGVHTFPAVLQSSGLYSLSSVVTVPSSSLGTQTYICNVNHKPSNTKVDKKV[letters of human IgG1 Fc with changes omitted]
# light: B1 light with R34Q
# B14: huAb3v2.5-TV (conjugate)
# heavy: EVQLVQSGAEVKKPGSSVKVSCKASGYTFSSYWMHWVRQAPGQGLEWIGLIHPESGSTNYNEMFKNRATLTVDRSTSTAYMELSSLRSEDTAVYYCAGGGRLYFDYWGQGTTVTVSSASTKGPSVFPLAPSSKSTSGGTAALGCLVKDYFPEPVTVSWNSGALTSGVHTFPAVLQSSGLYSLSSVVTVPSSSLGTQTYICNVNHKPSNTKVDKKV[letters of human IgG1 Fc with changes omitted]
# light: B1 light
# B15: huAb3v2.6-ZZ (conjugate)
# heavy: EVQLVQSGAEVKKPGSSVKVSCKASGYTFSSYWMHWVRQAPGQGLEWIGLIHPESGSTNYNEMFKNRATLTVDRSTSTAYMELSSLRSEDTAVYYCAGGGRLYFDYWGQGTTVTVSSASTKGPSVFPLAPSSKSTSGGTAALGCLVKDYFPEPVTVSWNSGALTSGVHTFPAVLQSSGLYSLSSVVTVPSSSLGTQTYICNVNHKPSNTKVDKKV[letters of human IgG1 Fc with changes omitted]
# light: B1 light with R34Q
# B16: huAb13v1-TV (conjugate)
# heavy: EVQLQESGPGLVKPSETLSLTCAVTGYSITSGYSWHWIRQFPGNGLEWMGYIHSSGSTNYNPSLKSRISISRDTSKNQFFLKLSSVTAADTAVYYCAGYDDYFEYWGQGTTVTVSSASTKGPSVFPLAPSSKSTSGGTAALGCLVKDYFPEPVTVSWNSGALTSGVHTFPAVLQSSGLYSLSSVVTVPSSSLGTQTYICNVNHKPSNTKVDKKV[letters of human IgG1 Fc with changes omitted]
# light: B4 light
# B17: huAb13v1-TX (conjugate)
# heavy: EVQLQESGPGLVKPSETLSLTCAVTGYSITSGYSWHWIRQFPGNGLEWMGYIHSSGSTNYNPSLKSRISISRDTSKNQFFLKLSSVTAADTAVYYCAGYDDYFEYWGQGTTVTVSSASTKGPSVFPLAPSSKSTSGGTAALGCLVKDYFPEPVTVSWNSGALTSGVHTFPAVLQSSGLYSLSSVVTVPSSSLGTQTYICNVNHKPSNTKVDKKV[letters of human IgG1 Fc with changes omitted]
# light: B4 light
# B18: huAb13v1-AAD (conjugate)
# heavy: EVQLQESGPGLVKPSETLSLTCAVTGYSITSGYSWHWIRQFPGNGLEWMGYIHSSGSTNYNPSLKSRISISRDTSKNQFFLKLSSVTAADTAVYYCAGYDDYFEYWGQGTTVTVSSASTKGPSVFPLAPSSKSTSGGTAALGCLVKDYFPEPVTVSWNSGALTSGVHTFPAVLQSSGLYSLSSVVTVPSSSLGTQTYICNVNHKPSNTKVDKKV[letters of human IgG1 Fc with changes omitted]
# light: B4 light
# modifications: non-natural residues
# Test system: NCI-H847 cells
# Assay: In vitro cell viability assay (CellTiter-Glo), NCI-H847
# Assay type: cell-based, human
# Conditions: ADC conjugated to Bcl-xLi synthon CZ, read-out: Cytotoxicity (H847 Cell line IC50)
# Experimental: The tumor cell lines HCC38 (breast cancer), NCI-H1650 (NSCLC) and NCI-H847 (small cell lung cancer cell line) were obtained from American Type Culture Collection (ATCC). Cells were grown in 96-well culture plates using recommended growth media overnight at a density of 5×10^3 (HCC38) or 20×10^3 (NCI-H847) or 40×10^3 (NCI-H1650) per well. The following day, treatments were added in fresh media to triplicate wells. Cellular viability was determined 5 days later using the CellTiter-Glo Luminescent Cell Viability Assay kit (Promega), as directed in the manufacturer's protocol. Cell viability was assessed as percentage of control untreated cells.
row,Molecule,IC50 [nM]
1,B1,1.57
2,B2,1.7

# Test system: NCI-H146 xenograft
# Assay: NCI-H146 small cell lung cancer xenograft model
# Assay type: in vivo, mouse
# Conditions: 6 mg/kg/IP/QD × 1 (Table 24)
row,Molecule,TGImax (%)
1,B3,65
2,B4,76

# Same assay, conditions: 6 mg/kg/IP/QDx1 (Table 23)
Molecule,TGD (%),TGImax (%)
B1,122,92
B5,89,86
B2,130,93
B6,130,92

# Test system: NCI-H1650 xenograft
# Assay: NCI-H1650 xenograft model
# Assay type: in vivo, mouse
# Conditions: NCI-H1650 xenograft (Table 27, first study), 10 mg/kg/day QD × 1/IP
Molecule,TGD (%),TGImax (%)
B7,100,80

# Test system: not listed separately
# Assay: Percentage aggregation of ADCs by size exclusion chromatography
# Assay type: physicochemical
# Conditions: Table 21 ADCs, conjugation Method A, E or G, 3 mg scale
# Experimental: The DAR and percentage aggregation of ADCs synthesized were determined by LC-MS and size exclusion chromatography (SEC), respectively.
# Size exclusion chromatography general methodology Size exclusion chromatography was performed using a Shodex KW802.5 column in 0.2 M potassium phosphate pH 6.2 with 0.25 mM potassium chloride and 15% IPA at a flow rate of 0.75 ml/min. The peak area absorbance at 280 nm was determined for each of the high molecular weight and monomeric eluents by integration of the area under the curve. The % aggregate fraction of the conjugate sample was determined by dividing the peak area absorbance at 280 nm for the high molecular weight eluent by the sum of the peak area absorbances at 280 nM of the high molecular weight and monomeric eluents multiplied by 100%.
row,Molecule,% agg by SEC [%]
1,B1,15.6
2,B8,16.2
3,B5,8.9
4,B9,20.1
5,B2,15
6,B6,10.4
7,B10,11.9
8,B11,11.3
9,B12,19.9
10,B13,10.7
11,B3,14.8
12,B14,10.4
13,B15,20.7
14,B16,3
15,B17,2.8
16,B4,20.2
17,B18,3.3
18,B7,3.9

# Same assay, conditions: huAb3v2 variant ADCs with synthon CZ, conjugation Method A
row,Molecule,% agg by SEC [%]
1,B1,15.6
2,B2,15
